Reference: the supplement of paper PMC10338343
± gives the standard deviation. Whole data set: some 3,700 sequences, median “pre-steady-state target cleavage rate” near 0.02, cut for the highest 2% near 0.23. This is a selection; strong and weak results do not stand in their true shares.

Each sequence was assayed on MILI (PIWIL2) piRISC loaded with Kctd7 piRNA (26 nt) (assay: pre-steady-state target cleavage rate (min^-1); MIWI and MILI are mouse PIWI proteins and EfPiwi is from a freshwater sponge; tags in brackets are library labels; higher = faster piRNA-guided slicing of the target). Conditions: guide: Kctd7 piRNA 5'p-UGUUAAUCUCUCAGAGAAGGUGACAG; auxiliary factor: 500 nM mouse GTSF1.
Procedure, shortened: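 The pre-steady-state cleavage rate was derived from a burst-and-steady-state fit of Cleave-'n-Seq data. For these assays, 1 nM active affinity-purified piRISC loaded with a single synthetic guide was mixed with […] a transcribed, DNA-blocked target RNA library in HEPES–potassium acetate buffer at 33 °C, with or without 500 nM GTSF1 partner protein, for 0–8 or 0–960 min. Sequencing counts of uncleaved targets were normalised to depth and to weakly complementary targets, and k3 was capped at 0.0001 min^-1 after three trials were pooled.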
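Further: 1 nM active piRISC with 0.1 nM target library at 33 °C single turnover.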

| Sequence | pre-steady-state target cleavage rate |
| --- | --- |
| UAGUCUGUCACCUUCUGUGAGAGAUUAACA | 0.0887 ± 0.01 |
| UAGUGACAGACCUUCCCUGAGAGAUUAACA | 0.0627 ± 0.018 |
| UAGUGAGUCACCUUCUGUGAGAGUUUAACA | 0.0738 ± 0.017 |
| UAGUGACACUGGUUCUCUGAGAGAUUAAGA | 0.0538 ± 0.012 |
| UAGUGACUCACCUUCUCUGAGAGAUUAACA [g2:g23:cont:t1A] | 0.173 ± 0.011 |
| UAGUCUGUCACCUUCACUCAGAGAUUAACA | 0.0272 ± 0.0086 |
| UAGUGUGUCACCUUGUCUGAGUGAUUAACA | 0.00503 ± 0.0039 |
| UAGUGAGUCACCUACUCUCAGAGAUUAACA | 0.0282 ± 0.008 |
| UAGUGUGUCACCAUCUCUGAGAGUUUAACA | 0.172 ± 0.047 |
| UAGUGAGUCACCUUGUCUGAGAGAUUAACA | 0.0975 ± 0.011 |
| UAGUGACAGUGGAAGACAGAGAGAUAAACA | < 0.0001 |
| UAGUGACAGACCAUGUCUGAGAGAUUAACA | 0.0379 ± 0.0095 |
| UAGUGAGUCAGCUUGUCUGAGAGAUUAACA | 0.149 ± 0.01 |
| UAGUGACACACCUUCUCUGAGAGAUUAACCA | 0.144 ± 0.01 |
| UAGUGAGUGAGCUUCUCUGAGAGAUUAACA | 0.0803 ± 0.011 |
| UAGUGAGUCACCUUCUCUGAGAGAUUAUCA | 0.197 ± 0.037 |
| UAGUGUGUCACCUUCUCUGAGAGAUUAGACA | 0.0316 ± 0.0099 |
| UAGUGACUCACCUUCGCUGAGAGAUUAACA | 0.066 ± 0.013 |
| UAGUGACACACCCUCUCUGAGAGAUUAACA | 0.16 ± 0.013 |
| UAGUGACAGACCUUCUCUGAGAGAUUAGCA | 0.0252 ± 0.013 |
| UAGUGUGUCACGUACUCUGAGAGAUUAACA | 0.0968 ± 0.0082 |
| UAGUGACUCACCUUCUGAGAGAGAUUAAGA | 0.0126 ± 0.0045 |
| UAGUGUGUGUCCUUCUCUGAGAGAUUAACA | 0.0982 ± 0.015 |

| Sequence | pre-steady-state target cleavage rate |
| --- | --- |
| UAGUGACACACCAUCUCUGUGAGAUUAACA | 0.0449 ± 0.0061 |
| UAGUGAGUCACCUUCAGUGAGAGAUUAUGA | 0.0138 ± 0.0063 |
| UAGUGACAGUGCUUCUCUGAGAGAUAUAACA | 0.0429 ± 0.0084 |
| UAGUGACAGUGGUUCUCUGUGAGAUUAACA | 0.0049 ± 0.0014 |
| UAGUGACAGUGGAAGAGAGAGAGAUUACACA | < 0.0001 |
| UAGUGACAGACCUUCUCUGCAGAGAUUAACA | < 0.0001 |
| UAGUGUGUCGACCUUCUCUGAGAGAUUAACA | 0.0942 ± 0.0089 |
| UAGUGAGUCACCUUCACUGUGAGAUUAACA | 0.048 ± 0.0052 |
| UAGUGAGUCACCUUCUCUGAGAGUUUUACA | 0.257 ± 0.078 |
| UAGUGACAGUGGAAGAGUGAGACAUUAACA | < 0.0001 |
| UAGUGACAGUGCUUCUCUGAGAGAUUGACA | 0.0242 ± 0.0055 |
| UAGUGACACACCUUCUCUGAGACAUUUUGA | < 0.0001 |
| UAGUGACAGAGGAUCUCUGAGAGAUUAUGA | < 0.0001 |
| UAGUGAGUCACGUUCUCUGAGAGAAUAACA | 0.0637 ± 0.021 |
| UAGUGACAGUGCUUCUCUGAGAGAUUAUACA | 0.00876 ± 0.0033 |
| UAGUGAGUCACGUUCUCUGAGAGAUUAAGA | 0.084 ± 0.018 |
| UAGUGACUCACCGUCUCUGAGAGAUUAACA | 0.132 ± 0.011 |
| UAGUGACAGACCUUCUCAGAGAGUUUAACA | 0.0085 ± 0.006 |
| UAGUGUGUCACCUUGUCUGAGAGAUUAUCA | 0.056 ± 0.019 |
| UAGUGACUCACCUUCUCAGAGAGAUAAACA | 0.0433 ± 0.011 |
| UAGUGACAGUGCGUUCUCUGAGAGAUUAACA | 0.0351 ± 0.0071 |
| UAGUGACAGUCCUUCUCAGAGAGAUAAACA | 0.0045 ± 0.0034 |
| UAGUCUCAGACCUUCUCUGAGAGAUUAACA | 0.114 ± 0.013 |

| Sequence | pre-steady-state target cleavage rate |
| --- | --- |
| UAGUGUGACACCUUGUCUGAGAGAUUAACA | 0.0749 ± 0.011 |
| UAGUGAGUCACCUUCUCUGAGUAGAUUAACA | 0.013 ± 0.0068 |
| UAGUCUGUCACCUUCUCUGAGAGAUUAAGA | 0.125 ± 0.027 |
| UAGUGACAGACCAACUCUGAGAGAUUUUGA | < 0.0001 |
| UAGUGUGUCACCUUCUAUGAGAGAUUAACA | 0.0956 ± 0.016 |
| UAGUGACACACCUUCUCUGAGAGACUAACA | 0.154 ± 0.024 |
| UAGUGUGUCACGAACUCUGAGAGAUUAAGA | 0.0138 ± 0.0036 |
| UAGUGUCUCACCUUCUCUGAGAGAUUAUCA | 0.173 ± 0.033 |
| UAGUCUGUCACCUACUCUGAGUGAUUAACA | 0.00273 ± 0.0026 |
| UAGUGAGUGACCUUCUCUCAGAGAUUAACA | 0.0396 ± 0.0089 |
| UAGUGAGUCAGCUUCUCUGAGUGAUUAACA | 0.00382 ± 0.0032 |
| UAGUGUGUCACCCUUCUCUGAGAGAUUAACA | 0.104 ± 0.016 |
| UAGUGACUCACCAUCUCUGAGAGAUUAUGA | 0.00533 ± 0.0031 |
| UAGUCUGUCACCUUCUCAGAGAGAUUUACA | 0.179 ± 0.038 |
| UAGUGAGUCACCUUCUGUGAGAGAUAAACA | 0.028 ± 0.0077 |
| UAGUGAGUCACCUUCUCUGCGAGAUUAACA | 0.0952 ± 0.015 |
| UAGUGACAGUCCUUCUCUAAGAGAUUAACA | 0.0523 ± 0.012 |
| UAGUGACAGUGGAAGACAGACAGAUUAACA | < 0.0001 |
| UAGUGACAGUGGAAGUCUGAGAGAUUCAACA | < 0.0001 |
| UAGUGUCUCACCAUCUCUGAGAGAUUAACA | 0.158 ± 0.014 |
| UAGUGAGUCACCUUCUCUGAGAGAAAAACA | 0.0915 ± 0.023 |
| UAGUGACACACCUUCUCUGAGAGAUCUAACA | 0.128 ± 0.041 |
| UAGUGAGUCACCUUCUCUCAGAGAAUAACA | 0.00872 ± 0.004 |

| Sequence | pre-steady-state target cleavage rate |
| --- | --- |
| UAGUGUGUCACCUUCUGACAGAGAUUAACA | 0.0232 ± 0.0081 |
| UAGUCUGUCUCGUUCUCUGAGAGAUUAACA | 0.159 ± 0.0079 |
| UAGUGACAGACCUUCUCAGAGAGAUUAACA | 0.0341 ± 0.0075 |
| UAGUGACUCACCUUCUCUGAGACUUUAACA | 0.013 ± 0.0046 |
| UAGUGACUCACCUACUCUGAGAGAUUUACA | 0.0886 ± 0.013 |
| UAGUGAGUCACCUUCUCUGUCUGAUUAACA | 0.00417 ± 0.0037 |
| UAGUGACUCAGCAUCUCUGAGAGAUUAACA | 0.0133 ± 0.0029 |
| UAGUGACUCACCAACUCUGAGAGAUUAACA | 0.0544 ± 0.0074 |
| UAGUGUGACUCCUUCUCUGAGAGAUUAACA | 0.151 ± 0.011 |
| UAGUGUCUCACCUUCUCUGAGUGAUUAACA | 0.005 ± 0.0038 |
| UAGUCUGUCACCAUCUCUGUGAGAUUAACA | 0.0404 ± 0.0047 |
| UAGUGACAGUCCUUCUCUGAUAGAUUAACA | 0.0206 ± 0.0043 |
| UAGUGACUGACCUUGUCUGAGAGAUUAACA | 0.111 ± 0.033 |
| UAGUGACAGUCCUUCUCUGAGAGAUUCACA | 0.0193 ± 0.0065 |
| UAGUGAGUCACCUUCUCUGAGAGAUUAAAA | 0.135 ± 0.037 |
| UAGUGACACACGUACUCUGAGAGAUUAACA | 0.0246 ± 0.0043 |
| UAGUGAGUCACCUUGUCUGAGAGAUUAUCA | 0.0297 ± 0.013 |
| UAGUGUCUCACCUUCUCUGUGAGAUUAACA | 0.0376 ± 0.006 |
| UAGUGACUCUCCUUCUCUGUGAGAUUAACA | 0.0317 ± 0.0023 |
| UAGUCUGUCACGUUCUGUGAGAGAUUAACA | 0.0502 ± 0.0053 |
| UAGUGACAGUCCUUCUCUGUGAGAUUAACA | 0.033 ± 0.0057 |
| UAGUGACUCACGUUCUCUGAGACAUUAACA | 0.00354 ± 0.0025 |
| UAGUGACUCACCUACACUGAGAGAUUAACA | 0.0735 ± 0.0063 |
